In ChEMBL document CHEMBL1201862, “PubChem BioAssay data set” (2004):
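Cells were grown in 96-well plates and exposed to each compound for 48 hours at five concentrations; endpoints were interpolated linearly between bracketing concentrations, or set to the highest concentration if not reached. GI50: concentration for 50% inhibition of growth.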 Activity calls are given as the source filed them. Rule as the data show it: active = GI50 up to about 1.1 µM and inactive = higher.

Test system: NCI-H322M
Experiment: inhibition of tumour cell growth, NCI panel, 48 h

How did the GI50 turn out when `NC1(C(=O)OCc2ccccc2)CCCC1` was run?
The GI50 was inactive: 29.2 µM.

For `Cc1ccc(/C(O)=C/c2nc3ccccc3oc2=O)cc1`, which GI50 is on record?
Its GI50 is inactive: 94.8 µM.

With `NC1=NS(=O)(=O)N=C(N)C1=Cc1ccc([N+](=O)[O-])o1` as the molecule, how does the GI50 read?
Its GI50 is inactive: 57.1 µM.

Which GI50 does the source give for `C/C(=C\CO)CC[C@@H]1[C@@]2(C)CCCC(C)(C)[C@@H]2CC[C@@]1(C)O` here?
The GI50 was inactive: 82.4 µM.

`Nc1nc(N)c2nc(CNc3ccc(C(=O)NC(CCCNC(=O)c4ccccc4C(=O)O)C(=O)O)cc3)cnc2n1` (stereo unspecified) was tested. Which GI50 did it give?
The GI50 was active: 0.0225 µM.

For `O=C(COc1ccc2c(=O)cc(-c3ccc(Cl)cc3)oc2c1)N1CCN(c2ccccc2)CC1`, which GI50 is on record?
The GI50 was inactive: 32.4 µM.

Which GI50 does the source give for `C[n+]1c(-c2ccccc2)cc2/c(=C\c3ccccc3)c3ccccc3n21` here?
The GI50 was inactive: 3.56 µM.

With `COc1cc2c3c(c1OC)-c1c(ccc4c1OCO4)CC3(C#N)N(C(=O)c1ccccc1)CC2` (stereo unspecified) as the molecule, how does the GI50 read?
The GI50 was inactive: > 100 µM.

With `COc1ccc(/C=C2\C[C@H]3[C@@H]4CCC5=CC(=O)CC[C@]5(C)[C@H]4CC[C@]3(C)C2=O)cc1OC` as the molecule, how does the GI50 read?
The GI50 was inactive: 24.3 µM.

How did the GI50 turn out when `Cc1cc(=O)cc2sc3c(C)cccc3nc1-2` was run?
Its GI50 is inactive: > 100 µM.

With `NNC(=O)CSc1nc2ccc(I)cc2c(=O)n1Cc1ccccc1` as the molecule, how does the GI50 read?
Its GI50 is inactive: 22.2 µM.

For `O=C(O)C1CCCCC1C(=O)Nn1cnnc1` (stereo unspecified), which GI50 is on record?
Its GI50 is inactive: > 100 µM.

Which GI50 does the source give for `CC[N+](CC)(CC)Cc1cc2ccccc2n1C(=O)OC` here?
Its GI50 is inactive: > 100 µM.

For `COP(=O)(OC)/C(=C\c1cn(C(c2ccccc2)(c2ccccc2)c2ccccc2)cn1)NC(C)=O`, which GI50 is on record?
Its GI50 is inactive: > 100 µM.

How did the GI50 turn out when `O=[As](O)(O)c1cc(/N=N/c2ccc(-c3ccc(/N=N/c4cc([As](=O)(O)O)c(O)cc4O)cc3)cc2)c(O)cc1O` was run?
The GI50 was inactive: > 83.2 µM.

Which GI50 does the source give for `Cc1ccc(NC(=O)c2cc3cc(/N=N/c4ccccc4C(=O)O)ccc3oc2=O)cc1` here?
Its GI50 is inactive: 49 µM.

How did the GI50 turn out when `COc1ccc(C(=O)C(C(=O)CC(=O)Nc2cccc(C(F)(F)F)c2)c2ccc(OC)cc2)cc1` (stereo unspecified) was run?
The GI50 was inactive: > 100 µM.

`O=C(CSc1nnc(-c2ccc(/N=C\c3ccc(Cl)cc3)cc2)o1)Nc1ccc(Cl)cc1Cl` was tested. Which GI50 did it give?
Its GI50 is inactive: 29.5 µM.

How did the GI50 turn out when `C=C(C(=O)OC)[C@H]1CC/C(C)=C/CC[C@@](C)(O)C=CC[C@@]2(C)O[C@@H]2C1` was run?
Its GI50 is inactive: 27.4 µM.

How did the GI50 turn out when `CC[C@]12C=CCN3CC[C@@]4(c5cc(Br)c(OC)cc5N(C)[C@H]4[C@@](O)(C(=O)N[C@@H](Cc4ccc(O)cc4)C(=O)OC)[C@@H]1O)[C@@H]32` was run?
Its GI50 is inactive: 3.85 µM.

For `CCc1nc2c(O)ccc(O)c2nc1C`, which GI50 is on record?
Its GI50 is inactive: 18.7 µM.

`Nc1n[n+]2cc(-c3ccccc3)n(CC(=O)c3ccccc3)c2s1` was tested. Which GI50 did it give?
The GI50 was inactive: 47.2 µM.

Which GI50 does the source give for `Cc1ccc(NC(=O)SCCC(=O)O)cc1NC(=O)SCCC(=O)O` here?
Its GI50 is inactive: > 100 µM.

Which GI50 does the source give for `Clc1ccccc1-c1nn2c(CCCCCCCCc3nnc4sc(-c5ccccc5Cl)nn34)nnc2s1` here?
The GI50 was inactive: > 100 µM.

For `CC[C@@H]1CC[C@@H]2[C@H](CC[C@]3(C)[C@@H](O[N+](=O)[O-])CC[C@@H]23)[C@H]1C(C)=O`, which GI50 is on record?
Its GI50 is inactive: 88.3 µM.

How did the GI50 turn out when `COc1ccccc1/C(=N\OCCC(=O)O)c1cccs1` was run?
The GI50 was inactive: > 100 µM.

Which GI50 does the source give for `CCCCCCCCCCCCCCCC(=O)OCC1OC(n2cc(F)c(=O)[nH]c2=O)C(NC(=O)N(CCCl)N=O)C(O)C1O` (stereo unspecified) here?
Its GI50 is inactive: 4.4 µM.

How did the GI50 turn out when `CCOC(=O)/C(=C\c1cn(C(C)=O)c2ccccc12)P(C)(=O)OCC` (stereo unspecified) was run?
The GI50 was inactive: 31 µM.

`O=c1[nH]nc(Cc2ccccc2)n1/N=C/c1ccccc1Cl` was tested. Which GI50 did it give?
The GI50 was inactive: > 100 µM.

How did the GI50 turn out when `CCC(C)(C)C1CCC2c3c([nH]c4ccccc34)C3C(=O)N(c4ccc(OC)cc4)C(=O)C3C2C1` (stereo unspecified) was run?
The GI50 was inactive: 23.9 µM.

Which GI50 does the source give for `O=[N+]([O-])c1cccc(-c2ncnc(-c3cccc([N+](=O)[O-])c3)n2)c1` here?
The GI50 was inactive: > 100 µM.

`CC1OC(OC2C(O)COC(OC3C(C)OC(OC4C(OC(=O)[C@]56CCC(C)(C)C[C@@H]5C5=CCC7[C@@]8(C)C[C@H](O)[C@H](OC9OC(CO)C(O)C(O)C9O)[C@@](C)(CO)[C@@H]8CC[C@@]7(C)[C@]5(C)CC6)OCC(O)C4O)C(O)C3OC3OCC(O)C(O)C3O)C2O)C(O)C(O)C1O` (stereo partly specified) was tested. Which GI50 did it give?
Its GI50 is inactive: 16 µM.

Which GI50 does the source give for `CC1NS(=O)(=O)N(C)C1=O` (stereo unspecified) here?
The GI50 was inactive: > 100 µM.

With `CC(C)C(Cl)CC/C(CBr)=C(\Cl)CCl` (stereo unspecified) as the molecule, how does the GI50 read?
The GI50 was inactive: 16 µM.

How did the GI50 turn out when `Cc1nc(-c2cc3cc([N+](=O)[O-])ccc3oc2=O)cs1` was run?
Its GI50 is inactive: > 100 µM.

How did the GI50 turn out when `CSc1n[n+]2c(s1)SCCC2` was run?
Its GI50 is inactive: > 100 µM.

`COc1ccc2cccc(C(=O)c3ccc(C)c4c3CCC4)c2c1` was tested. Which GI50 did it give?
The GI50 was inactive: 65.9 µM.

`Nc1nc(N)nc(-c2cnccn2)n1` was tested. Which GI50 did it give?
Its GI50 is inactive: > 100 µM.

For `CN1[C@@H]2CCCC[C@H]2N(C)P1(=O)C(O)/C=C/c1ccccc1` (stereo partly specified), which GI50 is on record?
Its GI50 is inactive: > 100 µM.

For `O=C1CC(=O)N(c2ccccc2)N1/C(=C/c1ccccc1)c1ccccc1`, which GI50 is on record?
The GI50 was inactive: 24.4 µM.

Which GI50 does the source give for `CC(=O)NC(C)(C)C1CC=C(C)/C(=N\O)C1` (stereo unspecified) here?
The GI50 was inactive: > 100 µM.

`O=C(NN=C1NCCCN1)c1ccco1` was tested. Which GI50 did it give?
The GI50 was inactive: > 100 µM.

Which GI50 does the source give for `CCCCCCCCCCC/C=C(/C(=O)CCCO[Si](C)(C)C(C)(C)C)C(=O)OC` here?
Its GI50 is inactive: > 100 µM.

`CCCCCCCCCCCCCCC[C@@H](O)C[N+](C)(C)CCO` was tested. Which GI50 did it give?
The GI50 was inactive: 13.6 µM.

With `CC/C=C/C(/C=C/C[C@]1(CC)C[C@H](CC)[C@H](CC(=O)O)OO1)CC` (stereo partly specified) as the molecule, how does the GI50 read?
The GI50 was inactive: 2.97 µM.

With `CN(C)CCNc1nc(-c2ccc3ccccc3c2)nc2[nH]cnc12` as the molecule, how does the GI50 read?
Its GI50 is inactive: 11.9 µM.

With `CC1(C)C/N=C/C(C)(OCc2ccccc2)C(=O)NC(C)(C)C/N=C/C(C)(OCc2ccccc2)C(=O)N1` (stereo unspecified) as the molecule, how does the GI50 read?
The GI50 was inactive: > 10 µM.

`CC1=NN(C(=O)CC(=O)Nc2cccc(Cl)c2)C(=O)C1/N=N\c1ccc(S(=O)(=O)c2ccc(/N=N/C3C(=O)N(C(=O)CC(=O)Nc4cccc(Cl)c4)N=C3C)cc2)cc1` (stereo unspecified) was tested. Which GI50 did it give?
The GI50 was inactive: > 100 µM.

How did the GI50 turn out when `N=C(c1ccc(-c2cn3cc(C(=N)N4CCCC4)ccc3n2)cc1)N1CCCC1` was run?
Its GI50 is inactive: > 100 µM.

Which GI50 does the source give for `Cc1ccc(S(=O)(=O)n2c3c(c4ccccc42)CCN2CCC(Br)C[C@@H]32)cc1` (stereo partly specified) here?
Its GI50 is inactive: 19.1 µM.

For `CCOC(=O)CNC(=O)CNC(=O)CNC(=O)CNNc1c(OCc2ccccc2)c(=O)c1=O`, which GI50 is on record?
The GI50 was inactive: > 100 µM.

`COC(NC(=O)Nc1ccccc1C)(C(F)(F)F)C(F)(F)F` was tested. Which GI50 did it give?
The GI50 was inactive: > 100 µM.

Which GI50 does the source give for `COc1ccc(-c2cc(-c3cc(Cl)cc(Br)c3O)nc(O)n2)cc1` here?
Its GI50 is inactive: 21.4 µM.

Which GI50 does the source give for `CCCCC1CC(c2cccc([N+](=O)[O-])c2)=NO1` (stereo unspecified) here?
The GI50 was inactive: > 100 µM.

With `O=C1CNC(=O)/C(=C/c2c[nH]c3ccccc23)N1` as the molecule, how does the GI50 read?
Its GI50 is inactive: > 100 µM.

How did the GI50 turn out when `CCCCCCCCCCCCCCCCOCC(Cl)CP(=O)(O)OP(=O)(O)OCC1OC(n2cnc3c(N)ncnc32)C(O)C1O` (stereo unspecified) was run?
Its GI50 is inactive: > 100 µM.

With `CC1(C)OC2C(O1)[C@H]1OC(C(Cl)(Cl)Cl)=N[C@H]1C(I)[C@H]2N1C(=O)c2ccccc2C1=O` (stereo partly specified) as the molecule, how does the GI50 read?
Its GI50 is inactive: 81.3 µM.

How did the GI50 turn out when `CC(C)N1C(C)[C@@H](c2ccccc2)O[P@]1(=O)CC1=CCCCC1` (stereo partly specified) was run?
The GI50 was inactive: > 100 µM.

How did the GI50 turn out when `N/C(=N/c1ccc(O)cc1)S(=O)O` was run?
Its GI50 is inactive: > 100 µM.

With `COC1=CC(C)C2C[C@H]3O[C@H](O)C[C@H]4C(C)C(=O)C(O)C([C@@]2(C)C1=O)[C@@]34C` (stereo partly specified) as the molecule, how does the GI50 read?
Its GI50 is inactive: > 10 µM.

Which GI50 does the source give for `O=C1C(O)=C(C(C2=C(O)C(=O)c3ccccc3C2=O)c2ccc(Cl)cc2)C(=O)c2ccccc21` here?
Its GI50 is inactive: 17.6 µM.
